Reference: PubChem BioAssay AID2202238 (Ras Initiative Chemistry Research Team, Frederick National …, 2025)
The whole screen tested about 2,200 compounds, of which fewer than 10 were called active. This is one part of the list. The source made no clear call on entries shown without one.

Target: GTPase KRas (Homo sapiens) (UniProt P01116)
Assay: Cysteine mutants labelled by reactive fragments (mass read-out) (AID 2202238)
Set-up: protein at 5 µM with 500 µM competing thiol for 1.5 h
Settings: KRAS G12D cysteine mutants, disulfide tethering, MALDI-TOF labeling; stronger effect = higher value; H27C mutant labeling; fragment at 500 µM

UniProt P01116, sequence (P01116 whole entry, looked up, the tested form may be a part): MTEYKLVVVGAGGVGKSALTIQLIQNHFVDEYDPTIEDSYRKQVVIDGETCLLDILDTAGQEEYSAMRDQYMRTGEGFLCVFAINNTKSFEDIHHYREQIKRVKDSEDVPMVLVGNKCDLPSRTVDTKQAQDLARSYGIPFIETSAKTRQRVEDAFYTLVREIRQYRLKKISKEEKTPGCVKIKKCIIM

Compound	percent labeling [%]
CN1CCOCC1c1n[nH]c(CNC(=O)CCS)n1 (stereo unspecified)	33.9
COc1cc(-n2cnnn2)c(Cl)cc1C(=O)NCCS	17.8
Cc1ccc2nc(C)c(C(=O)NCCS)cc2c1	30
CC(C)(C(=O)NCCS)c1cccc(C(F)(F)F)c1	32.2
O=C(CCS)Nc1nnc(Cc2ccc(C(F)(F)F)cc2)s1	7.8
O=C(CCS)NCc1cc(C2CCC2)n[nH]1	36
N#Cc1cnn(-c2ccc(C(=O)NCCS)cc2)c1N	36.9
COc1cccc(OCCNC(=O)CCS)c1O	29.8
CCC(Cc1cccc(Br)c1)C(=O)NCCS (stereo unspecified)	25.5
O=C(CCS)Nc1cccc(OC2CCCCC2)c1	22.1
CCOC(=O)c1cnc(CNC(=O)CCS)nc1C(F)F	31.9
O=C(CCCNC(=O)c1ccc(Cl)cc1)NCCS	29.3
CCOc1cc(C(=O)N(C)C)ccc1NC(=O)CCS	44.1
CC(C(=O)NCCS)c1ccc2c(c1)OCCO2 (stereo unspecified)	40.2
CCCOc1ccc(C(F)(F)F)cc1NC(=O)CCS	41.2
CC(C)c1ccc2cc(C(=O)NCCS)[nH]c2c1	10.6
NC(=O)c1cc(CNC(=O)CCS)n2c1COCC2	22.9
CC(C(=O)NCCS)n1nnc(-c2ccccc2)n1 (stereo unspecified)	21.1
Cc1nn(C)c2[nH]c(=O)c(CCC(=O)NCCS)c(C)c12	42.1
COc1cccc(COC(C)C(=O)NCCS)c1 (stereo unspecified)	31.8
CCOc1ccc(NC(=O)CCS)cc1CN(CC)CC	59.4
COc1ccc(C(=O)NCCS)nc1	54.2
COc1cnc(C(F)(F)F)cc1C(=O)NCCS	38.8
Cc1nn(CC(C)C)c(C)c1CCC(=O)NCCS	30.3

Compound	percent labeling [%]
O=C(CCS)Nc1ccc(OCC2CC2)cc1F	35.6
O=C(NCCS)C1CCN(C(=O)OCc2ccccc2)CC1	35.1
O=C(NCCS)[C@@H]1C[C@H]1c1ccccn1	43
O=C(NCCS)c1ccc(COc2ccccc2)cc1	23.1
O=C(CN1C(=O)COc2ccc(Cl)cc21)NCCS	41.1
O=C(CCS)NCc1ccc(C(F)F)nc1	33.3
COc1ccc(OC)c(-c2cc(C(=O)NCCS)[nH]n2)c1	30.4
Cc1csc(=O)n1CC(=O)NCCS	37.4
O=C(CN1C(=O)C2CC=CCC2C1=O)NCCS (stereo unspecified)	22.4
Cc1nnc(N2CCN(C(=O)CCS)CC2)s1	36.1
O=C(CCS)NCC1(c2ccncc2F)CC1	29.5
O=C(NCCS)c1cnc2nc[nH]c2c1	58.6
CN(CC(=O)NCCS)C(=O)c1cnn(C)c1-n1cccc1	33.6
Cc1nc2c(s1)CCCC2CNC(=O)CCS (stereo unspecified)	38.5
N#Cc1ccc(N2CCC(C(=O)NCCS)CC2)nc1	41
O=C(CCS)N1CCCC1c1c(F)cccc1F (stereo unspecified)	36.4
O=C(CCS)NC1CCCc2c1cnn2-c1ccccc1F (stereo unspecified)	45.9
O=C(NCCS)c1cccnc1Cl	45.3
O=C(CCS)NC1(c2ccc(F)cn2)CC1	38.7
COc1ccc(-c2csc(CCNC(=O)CCS)n2)cc1	30.9
O=C1C[C@H](C(=O)NCCS)C[C@H](c2ccccc2)N1	42.3
O=C(Cc1ccccc1C(=O)NCCS)Nc1cccnc1	34.5
Cc1cc(C)c2c(OCC(=O)NCCS)nn(C)c2n1	35.5
O=C(NCCS)C1(c2cc(Cl)ccc2F)CCC1	28.7

Compound	percent labeling [%]
CC(=O)NCC1(CC(=O)NCCS)CCCCC1	32.4
Cc1cc(C(=O)NCCS)nc2[nH]c(=O)[nH]c(=O)c12	34.1
Cc1nn(CC(F)F)cc1NC(=O)CCS	37.3
Cc1ccc(-c2csc(C(=O)NCCS)c2-n2cccc2)cc1	24.6
CC(C)NC(=O)c1cnn2c1CC(CNC(=O)CCS)CC2 (stereo unspecified)	35.9
O=C(CCS)NC(c1ccccc1)c1ccccc1	30.7
O=C(NCCS)c1ccc(-c2cccc(OC(F)(F)F)c2)s1	5.2
O=C(NCCS)c1ccc(F)cc1Cl	39.9
O=C(NCCS)c1cccc(I)c1	38.8
O=C(CCS)N1CCC(c2cc(=O)[nH]c(=O)[nH]2)C1 (stereo unspecified)	35.5
Cc1cnc(C(C)(C)NC(=O)CCS)s1	33.2
O=C(NCCS)C1CC(OCc2ccccc2)C1 (stereo unspecified)	31.2
Cn1[nH]c(=O)c2c(C(=O)NCCS)cc(C3CC3)nc21	23
O=C(CCS)Nc1cc(Cl)c2c(c1)OCCO2	32.6
O=C(NCCS)C(=O)c1c[nH]c2ccccc12	19.1
O=C(CCS)NCC1c2ccccc2C(=O)N1Cc1ccccc1 (stereo unspecified)	25.9
Cc1ccc(-c2nc(C(=O)NCCS)cs2)n1C	23.4
CCN(CC1CCC(C(=O)OC)CC1)C(=O)CCS (stereo unspecified)	42.2
Nc1ncnc2c1ncn2CCC(=O)NCCS	25.6
O=C(CCS)NC1Cc2cc(Br)cnc2NC1=O (stereo unspecified)	47.6
CC(C)Oc1cc(CN(C(=O)CCS)C2CC2)ccn1	39.2
Cc1cc(=O)[nH]c2cc(C(=O)NCCS)ccc12	28.8
O=C(NCCS)c1cc2ccccc2cc1O	23
